Experimental data: paper PMC4336329 (PLoS ONE, 2015)
The whole screen tested about 310,000 compounds, of which about 14,000 (4.5%) showed an effect of 50% or more. Effects have a minus sign here. This is one part of the list.

These compounds were tested against human ether-à-go-go-related gene (hERG) potassium channel (human, UniProt Q12809) (assay: primary screen, population patch clamp on CHO cells stably expressing hERG).
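Further: peak tail current of the secondary pulse compared with the same well before compound.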

human ether-à-go-go-related gene (hERG) potassium channel, sequence (Q12809 whole entry, looked up): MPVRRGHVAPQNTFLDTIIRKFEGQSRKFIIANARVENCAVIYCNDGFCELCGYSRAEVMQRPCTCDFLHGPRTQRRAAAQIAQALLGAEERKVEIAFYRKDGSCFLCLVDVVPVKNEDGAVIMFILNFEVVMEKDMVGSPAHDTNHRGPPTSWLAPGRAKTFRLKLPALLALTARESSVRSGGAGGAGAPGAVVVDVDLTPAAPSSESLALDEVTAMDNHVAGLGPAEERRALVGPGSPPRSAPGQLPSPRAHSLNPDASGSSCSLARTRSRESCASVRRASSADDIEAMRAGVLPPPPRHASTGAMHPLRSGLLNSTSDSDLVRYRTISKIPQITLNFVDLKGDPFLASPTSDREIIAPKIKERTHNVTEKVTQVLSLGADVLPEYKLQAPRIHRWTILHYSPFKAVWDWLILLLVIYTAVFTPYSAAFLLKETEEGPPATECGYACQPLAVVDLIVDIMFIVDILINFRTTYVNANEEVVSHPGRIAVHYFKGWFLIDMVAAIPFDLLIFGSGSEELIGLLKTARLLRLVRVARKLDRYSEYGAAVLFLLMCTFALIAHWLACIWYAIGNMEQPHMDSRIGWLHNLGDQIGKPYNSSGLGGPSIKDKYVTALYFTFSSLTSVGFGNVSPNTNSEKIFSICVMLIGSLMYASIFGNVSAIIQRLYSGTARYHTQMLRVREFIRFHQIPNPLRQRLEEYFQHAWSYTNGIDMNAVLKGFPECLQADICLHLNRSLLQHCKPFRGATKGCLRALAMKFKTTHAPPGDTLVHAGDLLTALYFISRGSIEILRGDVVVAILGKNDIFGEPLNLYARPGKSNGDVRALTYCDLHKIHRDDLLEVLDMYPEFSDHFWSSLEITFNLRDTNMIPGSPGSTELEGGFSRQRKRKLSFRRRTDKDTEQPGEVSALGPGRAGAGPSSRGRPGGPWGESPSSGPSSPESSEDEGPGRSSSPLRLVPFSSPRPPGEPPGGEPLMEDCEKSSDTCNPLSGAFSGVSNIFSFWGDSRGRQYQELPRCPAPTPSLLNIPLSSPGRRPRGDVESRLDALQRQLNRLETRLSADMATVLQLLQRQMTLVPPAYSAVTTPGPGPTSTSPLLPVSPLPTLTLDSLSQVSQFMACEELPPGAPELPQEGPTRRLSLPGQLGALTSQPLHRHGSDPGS

Structure (SMILES)	hERG current change (%, negative = inhibition) at 10uM
COc1ccc(NC(=O)c2cnc(SC)n2-c2ccc(F)cc2)c(OC)c1	-8.28%
CC(=O)c1ccccc1NC(=O)COC(=O)c1cc2ccccc2[nH]1	5.41%
COc1ccc(CNC(=O)C2CC(c3ccc(F)cc3)=NO2)cc1 (stereo not drawn)	-7.35%
Cn1c(N)c(C(=O)COC(=O)CCc2c[nH]c3ccccc23)c(=O)n(C)c1=O	12.8%
CN(Cc1cccc(F)c1)C(=O)Cc1ccc(S(=O)(=O)N2CCOCC2)s1	-28.1%
Cc1ccc(NC(=O)C(=O)Nc2ccc(C)cn2)nc1	-4.27%
CC1=C(C(=O)Nc2ccccc2C(F)(F)F)C(c2ccc(C)s2)NC(=S)N1 (stereo not drawn)	-15.1%
Cc1cc([N+](=O)[O-])nn1CC(=O)Nc1ccc(F)cc1	6.31%
COc1ccccc1NC(=O)C1CCCCC1	-4.47%
Cl.NC1=NC(c2ccccc2C(F)(F)F)N(c2ccc(F)c(Cl)c2)C(N)=N1 (stereo not drawn)	16.4%
O=[N+]([O-])c1ccc(N/N=C/c2c[nH]c3ccccc23)c(S(=O)(=O)Nc2ccc(Cl)cc2)c1	-3.58%
CCc1ccc(C(=O)COC(=O)c2ccc(-c3nnc(-c4ccccc4)o3)cc2)cc1	9.62%
CCN1C(=O)C2CCCCN2c2ccc(C(=O)NCCOC)cc21 (stereo not drawn)	12.7%
O=C(CSCc1c(F)cccc1Cl)Nc1ccccc1C(=O)N1CCOCC1	5.4%
O=C(Cc1nnc(NC(=O)Nc2ccccc2F)s1)NCc1ccccc1	8.98%
CCOc1ccccc1NC(=S)N1CCC(NC(=O)c2ccco2)CC1	2.86%
CCN(CC)CCCN(Cc1cc2cc3c(cc2[nH]c1=O)OCO3)C(=S)NCc1ccco1	-38.2%
Cc1nnc(NC(=O)C2CCN(S(=O)(=O)c3ccc(Cl)cc3)CC2)s1	14.8%
COC(=O)[C@@H](NC(=O)NCc1ccco1)C(C)C	2.75%
O=C(CCCn1c(=O)c2sccc2n(CC(=O)OCc2ccccc2)c1=O)NCc1ccco1	-30.4%
Cc1cccn2cc(-c3ccccc3)nc12	-4.67%
COc1ccc(OC)c(NC(=O)c2ccc(-c3csc(C)n3)cc2)c1	7%
COc1cccc(NC(=O)Nc2nnc(N3C(C)CCCC3C)s2)c1 (stereo not drawn)	24.9%
O=C1CCCC2=C1C(c1cccs1)n1nc(SCc3ccccc3)nc1N2 (stereo not drawn)	-4.83%
